# PubChem BioAssay AID686971 (National Center for Advancing Translational Sciences (NCATS), 2013)
# Screen size: about 360,000 compounds; about 7,500 (2.1%) were called active. The shares of active, inactive and inconclusive entries below differ from those in the screen. Calls follow the shape of the dose curve; as a rule, active = well fitted cell-killing curve with a large enough effect; inconclusive = small, poorly fitted or top-dose-only effect, or effect the other way, or another doubt; inactive = no such curve, though single readings can be large or run the other way. Potencies of inconclusive entries are left out as doubtful fits.
# Assay: qHTS for induction of synthetic lethality in tumor cells producing 2HG: qHTS for the HT-1080-IDH1KD cell line;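 as to activity, negative = toxicity: 0% = DMSO wells and -100% = cell-free medium wells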
# Conditions: HT-1080 IDH1 knockdown viability, ATP luminescence, 48 h; activity, negative = toxicity: at 46.1 µM (top of the series) unless noted
# Summary of the method: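 In this qHTS, HT-1080 cells depleted of IDH1 are exposed for 48 h at 37 °C to compound titrations. Toxicity is scored from CellTiter-Glo luminescence, with DMSO as full viability and medium alone as none.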
# Potency is read from the fitted curve at half-maximal effect; tags tell the direction and shape of the fitted curve.
SMILES,Potency,"activity, negative = toxicity"
COc1ccc(/C=C2\SC(=S)N(CCCC(=O)N3CCCCC3CCO)C2=O)cc1 (stereo unspecified),inactive,
CCNC(=O)C1(C)CCCN1C(=O)c1ccc(F)c(Cl)c1 (stereo unspecified),"inconclusive [rising, partial curve]",
COC(=O)[C@@]1(Cc2ccc(F)cc2)[C@H]2c3cc(C(=O)N(C)C)n(CCF)c3C[C@H]2CN1C(=O)c1ccccc1,"inconclusive [cytotoxic, single point]",
O=C(CNc1ccccc1)N/N=C/c1c(O)ccc2ccccc12,active: 11.6 µM,
Cc1ccc(-c2nc(CS(=O)(=O)CC(=O)N3CCCCCC3)c(C)o2)cc1,inactive,
CS(=O)(=O)c1ccc(-c2cccc(NC(=O)COc3ccc(Cl)cc3)c2)nn1,,inconclusive: -31.4% [cytotoxic]
CCN1CCCC1CNc1ncnc2c1[nH]c1ccc(Cl)cc12 (stereo unspecified),"inconclusive [cytotoxic, single point]",
COc1ccc(/C=C/C(=O)OCc2cccc([N+](=O)[O-])c2)cc1,"inconclusive [rising, partial curve]",
Cc1ccccc1NC(=O)Cc1nc(COC(=O)c2nccnc2N)cs1,inactive,
COCc1ccc(CN2CCCC(CO)(Cc3ccccc3C)C2)o1 (stereo unspecified),inactive,
CCOc1ccc(Br)cc1S(=O)(=O)Nc1ccc(C(=O)Nc2ccc(C)cc2)cc1,inactive,
CNCc1ccccc1OCC(=O)Nc1ccccc1OC,"inconclusive [cytotoxic, single point]",
CNC(=O)c1cc(Oc2ccc(NC(=O)Nc3ccc(Cl)c(C(F)(F)F)c3)cc2)ccn1,"inconclusive [cytotoxic, single point]",
CCC(=O)Nc1ccc(/C=C(\C(C)=O)C(=O)c2ccccc2)cc1,active: 16.4 µM,
C=CCOc1nc2c(c(=O)n(Cc3ccc(Cl)c(Cl)c3)c(=O)n2C)n1C,inactive,
CC(C)(C)c1ccc(C(=O)NCCC(=O)NCc2cccs2)cc1,"inconclusive [cytotoxic, partial curve, poor fit]",
CC(/C=C/c1ccccc1)=N\NC(=O)c1ccncc1,"inconclusive [cytotoxic, single point]",
COc1cccc2c1C(=O)c1c(O)c3c(c(O)c1C2=O)C[C@@](O)(C(C)=O)C[C@@H]3O[C@H]1C[C@H](N)[C@H](O)[C@H](C)O1,active: 0.146 µM,
CCN(CC)CCN(C(=O)c1ccc2c(c1)CCCC2)c1nc2ccc(C)cc2s1,inactive,
c1csc(CNc2nc(NCC3CCCCC3)c3sccc3n2)c1,"inconclusive [cytotoxic, single point]",
O=C(CSc1ncnc2c1nnn2Cc1ccc(F)cc1)NCC1CCCO1 (stereo unspecified),"inconclusive [cytotoxic, single point]",
O=C(CCc1ccccc1)NC(=S)Nc1cc(C(F)(F)F)ccc1N1CCOCC1,"inconclusive [cytotoxic, single point]",
Cc1cc(C)cc(OC(C)C(=O)Nc2ccc(S(=O)(=O)Nc3cc(C)nc(C)n3)cc2)c1 (stereo unspecified),inactive,
COCc1nc2ccccc2n1Cc1cccc(C)c1,inactive,

SMILES,Potency,"activity, negative = toxicity"
COC(=O)c1ccc(CN2C(=O)NC3(CCCCC3C)C2=O)o1 (stereo unspecified),inactive,
S=C(Nc1ccc(Oc2ccccc2)cc1)N1CCN(c2ccccn2)CC1,"inconclusive [cytotoxic, single point]",
CS(=O)(=O)N(CCc1ccccc1)CC(=O)NCc1ccncc1,"inconclusive [cytotoxic, single point]",
CCCc1nnn(S(=O)(=O)c2ccc([N+](=O)[O-])cc2)c1CCC,,inconclusive: 17.8%
O=C(NCc1cccs1)C1CCN(c2ccc(S(=O)(=O)N3CCOCC3)cc2Cl)CC1,"inconclusive [cytotoxic, full curve]",
Cc1ccccc1OCCC(=O)OCC(=O)NCCc1ccccc1,inactive,
Cc1ccc(-n2nc(C)c3c(C)c(CCC(=O)Nc4ccc(CN5CCCC5)cc4)c(C)nc32)cc1,active: 14.6 µM,
Cc1ccc(S(=O)(=O)Nc2cccc3cccnc23)c([N+](=O)[O-])c1,active: 2.06 µM,
COc1ccc(C(=O)NCc2ccc(-c3nc4ccccc4s3)cc2)cc1OC,"inconclusive [cytotoxic, single point]",
O=c1[nH]c(-c2cccnc2)nc2sc(-c3ccccc3)cc12,active: 4.61 µM,
COc1ccccc1/C=C1\SC(=O)N(CCC(=O)NCCCn2ccnc2)C1=O,"inconclusive [cytotoxic, full curve, poor fit]",
CCCc1cc(=O)[nH]c(SCC(=O)Nc2cc(S(=O)(=O)N3CCOCC3)ccc2N(CC)CC)n1,inactive,
N#Cc1ccc(NC(=O)N2CCC(c3nc4c(nnn4Cc4cccc(Cl)c4)c(=O)[nH]3)CC2)cc1,"inconclusive [cytotoxic, single point]",
O=C(Nc1ccccc1F)C1CCN(S(=O)(=O)c2cccnc2)CC1,inactive,
CN1CCN(c2ccc(S(=O)(=O)N3CCCCC3)cc2NC(=O)/C=C/c2ccc(Cl)c([N+](=O)[O-])c2)CC1,"inconclusive [cytotoxic, single point]",
CC(C)n1nccc1N(Cc1ccc(Br)cc1)S(=O)(=O)c1ccccc1,"inconclusive [cytotoxic, single point]",
Cc1nc(C)c(C(=O)O)c(-c2cccs2)c1C(=O)O,inactive,
COc1ccc(-c2noc(CSc3nc(N)cc(=O)[nH]3)n2)cc1,"inconclusive [cytotoxic, single point]",
CC1CCN(S(=O)(=O)c2ccc(NC(=O)CN3CCCCCC3)cc2)CC1,"inconclusive [cytotoxic, partial curve]",
CCC1CCCCN1C(=O)Cn1nc([N+](=O)[O-])c(Cl)c1C (stereo unspecified),inactive,
COCCn1nnnc1CN(CCc1ccccc1)Cc1cc2cc(OC)ccc2[nH]c1=O,"inconclusive [cytotoxic, single point]",
Cc1ccc2nc(-c3ccccc3)cc(C(=O)N3CCN(c4ccccc4O)CC3)c2c1,"inconclusive [cytotoxic, single point]",
COc1ccc(N(CC(=O)NCCSc2ccccc2)S(=O)(=O)c2ccccc2)c(OC)c1,inactive,
O=C(CSc1nnc(-c2ccc(Cl)s2)o1)N1CCCc2ccccc21,inactive,

SMILES,Potency,"activity, negative = toxicity"
C/C=C/c1ccc(OCCCCN2CCC(C)CC2)c(OC)c1,"inconclusive [cytotoxic, single point]",
COc1cccc(NC(=O)CCc2nc(-c3cccs3)no2)c1,"inconclusive [cytotoxic, partial curve]",
CC(C)(C)c1cc(-c2csc(Nc3ccccc3)[n+]2Cc2ccc(C(=O)O)cc2)cc(C(C)(C)C)c1O,"inconclusive [cytotoxic, single point]",
O=C(COC(=O)C1CCN(c2ccc(C(F)(F)F)cn2)CC1)Nc1ccc(Cl)cc1,inactive,
Cc1cc(C)cc(C(=O)NCC(=O)N2CCN(C(c3ccccc3)c3ccccc3)CC2)c1,"inconclusive [cytotoxic, single point]",
N#CCC1c2ccccc2CCN1C(=O)Nc1ccc(Cl)cc1 (stereo unspecified),inactive,
CC1=CC(C)(C)Nc2ccc(OC(=O)CN3C(=O)CCC3=O)cc21,active: 2.51 µM,
Cc1cc(C(C)(C)C)cc(C)c1CCNC(=O)c1c(C)noc1C,"inconclusive [cytotoxic, partial curve]",
Oc1cccc(/C=C/c2ccc3cccc(O)c3n2)c1,"inconclusive [cytotoxic, partial curve, poor fit]",
CC(C)C[C@H]1CNC(=S)N1C[C@H]1CCCN1C[C@H](Cc1ccc(O)cc1)N1C[C@H](CC(C)C)N(CC2CCCCCC2)C1=S,"inconclusive [cytotoxic, partial curve]",
CCOC(=O)N1CCN(C(=O)COC(=O)Cc2ccc(Cl)cc2)CC1,"inconclusive [rising, single point]",
O=C(NC(=S)Nc1cccc(NC(=S)NC(=O)c2ccco2)n1)c1ccco1,"inconclusive [cytotoxic, partial curve]",
COc1ccc(N(CC(=O)Nc2cc(OC)ccc2OC)S(=O)(=O)c2c(C)nn(C)c2C)cc1,inactive,
O=C(Nc1cccc(Cl)c1)Nc1nccs1,inactive,
Cc1cc(C)cc(NC(=S)NCCSc2ccc(Cl)cc2)c1,"inconclusive [cytotoxic, single point]",
COc1ccc(NC(=O)C2(C)CCN2C(=O)c2ccc(C(C)(C)C)cc2)cc1OC (stereo unspecified),"inconclusive [cytotoxic, single point]",
Cc1ccnc(N2C(=O)c3ccccc3C2O)c1 (stereo unspecified),"inconclusive [cytotoxic, single point]",
COc1ccc(C(=O)CC(=O)C(=O)Nc2ccccc2C(F)(F)F)cc1,"inconclusive [cytotoxic, single point]",
O=C(c1cc2sccc2n1Cc1ccccc1)N1CCc2ccccc21,"inconclusive [cytotoxic, single point]",
CC(=O)c1ccc(NC(=O)CS(=O)(=O)c2cn(CC(=O)N3CCOCC3)c3ccccc23)cc1,inactive,
OCCN(CCO)CC(O)COCCC12CC3CC(CC(C3)C1)C2 (stereo unspecified),"inconclusive [cytotoxic, single point]",
O=C1/C(=C/c2ccco2)SC(=S)N1CCC(=O)N1CCCCC1CCO (stereo unspecified),inactive,
CN(C)CC1CCCCC1C1(O)c2ccccc2CSc2sccc21 (stereo unspecified),active: 17.8 µM,
